Source: paper PMC4242493
The list shows a part of the results. The list includes weakly bound sequences.

Molecular target: MaxL homodimer (UniProt P61244)
Test: universal protein-binding microarray (PBM)
Details: PBS-based mixture, 10 nM His-tagged protein dimer, 2% milk, 200 ng/uL BSA, 50 ng/uL salmon testes DNA, 0.02% TX-100; detection with Alexa 488 anti-His …; high values mean tight binding; most listed sequences are background and not binding sites; double strand, one strand shown

UniProt P61244, sequence (P61244 whole entry): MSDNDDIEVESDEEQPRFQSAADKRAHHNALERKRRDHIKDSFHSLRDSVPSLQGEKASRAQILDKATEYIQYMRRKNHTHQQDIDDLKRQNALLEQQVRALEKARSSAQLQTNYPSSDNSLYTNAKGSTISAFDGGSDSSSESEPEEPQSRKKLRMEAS

Sequence | binding signal (normalized occupancy)
ACGGGGTC | 0.0767
CACGACAA | 0.0838
AGTACAGC | 0.0795
GAAATGTA | 0.0821
CCTGCAGC | 0.074
AGTGACCA | 0.0753
CTTGCACC | 0.07
ACTATAAT | 0.0832
CTGGAGTC | 0.0677
ACATAGAA | 0.0839
AATTTGAA | 0.0696
AACCAATT | 0.0737
CTTTGTAC | 0.0768
CGATAGAA | 0.0785
GCTCCATA | 0.0816
AAGTGATA | 0.0795
GGAGATAA | 0.0763
ATTTCTCA | 0.0749
CTATGACA | 0.0778
AGCTAATA | 0.071
ACGACTCT | 0.0746
AAACCACC | 0.0775

Sequence | binding signal (normalized occupancy)
TCGTTCAA | 0.0769
AACAACGG | 0.0733
GTCACGAA | 0.0778
AGGTTAGA | 0.0719
GCAATCGA | 0.072
CCAGTGCA | 0.0738
GCCAGAAA | 0.0686
AAGCAACG | 0.0753
ACTCTCTC | 0.0783
ATTGATCG | 0.0783
CGTATCGC | 0.0739
CGCCACGC | 0.0953
CACACAAA | 0.0793
CGTTATTA | 0.0757
AATCGGCA | 0.0719
CGTAAATC | 0.0744
AGCCTTGG | 0.0703
ACCGAGTA | 0.077
TCCATAGA | 0.0742
GTAGCAGA | 0.0734
CACACAGA | 0.075
CAGGGCAA | 0.0701

Sequence | binding signal (normalized occupancy)
CGGGGTCA | 0.0776
ACGGTGAA | 0.0796
GATTCAAC | 0.0763
AAGCTTCT | 0.0702
TACTGCAA | 0.0788
CCTCAACC | 0.0752
CGTTGGCA | 0.0756
CCAACCAG | 0.0696
TCGCTTCA | 0.0721
GAGGTTAC | 0.0757
AGACTGAC | 0.0694
CAGGCCGC | 0.0666
AGACTGGC | 0.0718
TAACGATA | 0.083
GAAGTCTA | 0.075
CAGAGTGC | 0.0724
GACGGGGC | 0.0753
CTTAGGGC | 0.0708
AGTGTGCG | 0.0802
CATTTTCG | 0.0762
CTGGAGCA | 0.0712
AACCACTG | 0.0734

Sequence | binding signal (normalized occupancy)
ATGGGGCA | 0.0873
GTTGCACA | 0.0734
ACCTATTA | 0.0816
AGGGTCAT | 0.0797
ATTGCTGA | 0.0799
TAGTGAAA | 0.0775
AATAGACT | 0.0786
ATCGATAC | 0.0835
GAACATGA | 0.0904
ACTTGCAA | 0.0705
CGGTGCTC | 0.0727
CTAAGGTC | 0.0732
ACTTTACG | 0.072
GCTGACCC | 0.0707
AGCAATCA | 0.0741
GAACTCGA | 0.0761
AGTTTTCA | 0.0725
ATCCCTTC | 0.0745
CGATGGCC | 0.0707
GCCACACA | 0.0771
CAGCTCAC | 0.0734
AAGCACTT | 0.0733

Sequence | binding signal (normalized occupancy)
GCTCATAA | 0.0731
CTTGTCGA | 0.0718
AATACCAA | 0.0753
TAAACTAA | 0.0761
ATCGTATG | 0.0786
GTAATACA | 0.0763
CAGCAACA | 0.0758
AACGACCC | 0.074
ACTGAAGG | 0.0686
AGCGGACA | 0.0676
ACCACTCG | 0.0782
GACTAGTA | 0.079
TCCTCAGA | 0.0724
GGCGGTCA | 0.0776
GTATCTCA | 0.0813
AGGCTGTA | 0.076
CACATATG | 0.095
ACCGTTGA | 0.0717
CGTGGGGA | 0.0853
GGATGGTA | 0.0803
ACATGGTG | 0.0914
GAAGAAGA | 0.0714
